{"source": "PubChem BioAssay (NCATS)", "note": "The shares of active, inactive and inconclusive entries below differ from those in the screen. Potencies of inconclusive entries are doubtful fits and often do not repeat. The source made the active and inactive calls. Calls come from the whole dose curve; as a rule, active = well fitted inhibition curve with a large enough effect; inconclusive = small, poorly fitted or top-dose-only effect; inactive = no such curve, though single readings can be large or run the other way. Potency is the fitted concentration of half-maximal effect; tags give direction and shape of the fitted curve.", "data": [{"biological_target": "DNA repair nuclease/redox regulator APEX1 (Homo sapiens) (UniProt P27695)", "sequence (P27695 whole entry, looked up)": "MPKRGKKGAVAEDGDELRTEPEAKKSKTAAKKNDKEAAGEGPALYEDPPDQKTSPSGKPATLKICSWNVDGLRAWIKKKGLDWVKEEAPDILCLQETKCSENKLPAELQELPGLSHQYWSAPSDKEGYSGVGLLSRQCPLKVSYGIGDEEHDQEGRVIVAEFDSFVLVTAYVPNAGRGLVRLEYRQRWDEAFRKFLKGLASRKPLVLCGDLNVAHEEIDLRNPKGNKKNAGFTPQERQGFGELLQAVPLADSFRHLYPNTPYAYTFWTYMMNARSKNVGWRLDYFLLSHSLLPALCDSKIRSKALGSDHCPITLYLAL", "assay": "qHTS FP-Based Assay for Inhibitors of the Human Apurinic/apyrimidinic Endonuclease 1 (APE1) (AID 2573)", "conditions": "APE1 binding to TAMRA-labelled double-stranded DNA, fluorescence polarization displacement; series mostly up to 28.5 µM", "values": [{"smiles": "CC(=O)N1CCC(C(=O)Nc2ccccc2)(N(Cc2ccccc2)C(=O)c2cccnc2)CC1", "Potency": "inconclusive: 0.316 µM [inhibitor, full curve, poor fit]"}, {"smiles": "O=C(O)c1cccc(-n2cccc2/C=C2\\NC(=O)N(Cc3ccc(F)cc3)C2=O)c1", "Potency": "inconclusive: 17.8 µM [inhibitor, partial curve, poor fit]"}, {"smiles": "O=C1CCCC2=C1C(c1ccco1)Nc1ccc3ccccc3c12", "note": "(stereo not given)", "Potency": "inconclusive: 14.1 µM [inhibitor, single point]"}, {"smiles": "COc1ccc2c(c1)c(=O)oc1cc(OCC(=O)N3CCC(C)CC3)ccc12", "Potency": "inconclusive: 14.1 µM [inhibitor, single point]"}, {"smiles": "NC(=O)c1ccc(-n2nnnc2SCC(=O)c2ccc(O)c(O)c2)cc1", "Potency": "inactive"}, {"smiles": "N#Cc1ccccc1CN1C(=O)S/C(=C/c2cccn2-c2cccc(C(=O)O)c2)C1=O", "Potency": "inactive"}, {"smiles": "CCOC(=O)C1CCc2sc(N)c(C#N)c21", "note": "(stereo not given)", "Potency": "inconclusive: 25.1 µM [inhibitor, single point]"}, {"smiles": "O=C(O)CCCN1C(=O)/C(=C/C=C/c2ccco2)SC1=S", "Potency": "inconclusive: 10 µM [inhibitor, partial curve]"}, {"smiles": "COc1ccnc(Oc2ccccc2)c1C(N)=O", "Potency": "inconclusive: 0.794 µM [inhibitor, full curve, poor fit]"}, {"smiles": "Cc1ccc2oc(=O)n(CC(=O)OC(C)C)c2c1", "Potency": "inconclusive: 5.01 µM [inhibitor, partial curve, poor fit]"}, {"smiles": "O=c1oc2c3c4c(cc2s1)CCCN4CCC3", "Potency": "inactive"}, {"smiles": "O=C1CCCC(O)=C1N=Nc1cccc(C(=O)O)c1", "Potency": "inactive"}, {"smiles": "c1cncc(-c2nc(-c3ccco3)cs2)c1", "Potency": "inconclusive: 0.316 µM [inhibitor, full curve, poor fit]"}, {"smiles": "C=CC1=C(C(=O)O)N2C(=O)[C@@H](NC(=O)/C(=N\\OCC(=O)O)c3csc(N)n3)[C@@H]2SC1", "Potency": "inactive"}, {"smiles": "Nc1ncc(N=Nc2cc(C(=O)O)ccc2Cl)s1", "Potency": "inconclusive: 0.501 µM [inhibitor, full curve, poor fit]"}, {"smiles": "CCOC(=O)CNS(=O)(=O)c1cc(-c2nn(C)c(=O)c3ccccc23)ccc1C", "Potency": "inactive"}, {"smiles": "O=S(=O)(NC1CCCCC1)c1cccc(-c2nnc(-c3ccccc3)o2)c1", "Potency": "inactive"}, {"smiles": "CC(=O)NC1=NC(=O)/C(=C/c2cc(C)n(-c3cccc(C(=O)O)c3)c2C)S1", "Potency": "inconclusive: 0.0891 µM [inhibitor, full curve, poor fit]"}, {"smiles": "CC(C(=O)O)N1C(=O)/C(=C/C=C/c2ccco2)SC1=S", "note": "(stereo not given)", "Potency": "active: 12.6 µM"}, {"smiles": "O=C(O[C@@H]1OC2COC(=O)c3cc(O)c(O)c(O)c3-c3c(cc(O)c(O)c3O)C(=O)O[C@@H]([C@H]1O)[C@@H]2O)c1cc(O)c(O)c(O)c1", "Potency": "inconclusive: 0.0045 µM [inhibitor, full curve, poor fit]"}, {"smiles": "O=c1c(OC2OC(CO)C(O)C(O)C2OC2OC(CO)C(O)C(O)C2OC2OC(CO)C(O)C(O)C2O)c(-c2ccc(O)c(O)c2)oc2cc(O)cc(O)c12", "note": "(stereo not given)", "Potency": "inconclusive: 12.6 µM [inhibitor, partial curve, poor fit]"}, {"smiles": "O=C(Oc1ccc2c(c1)OCO2)c1cc2c(s1)CCC2", "Potency": "inconclusive: 0.562 µM [inhibitor, full curve, poor fit]"}, {"smiles": "COc1cc(O)cc2cc3c(c(O)c12)C(=O)CC(C)(O)O3", "note": "(stereo not given)", "Potency": "inconclusive: 1.12 µM [inhibitor, full curve, poor fit]"}, {"smiles": "CC(N=Cc1cccc(O)c1O)c1ccccc1", "note": "(stereo not given)", "Potency": "inactive"}, {"smiles": "COC(=O)CCCC1=CC2=CC(=O)C(C)(OC(=O)c3cccs3)C(=O)C2=CN1Cc1ccco1", "note": "(stereo not given)", "Potency": "inconclusive: 1 µM [inhibitor, full curve, poor fit]"}, {"smiles": "O=[N+]([O-])c1cc(/C=N\\Nc2nccs2)ccc1O", "Potency": "active: 8.91 µM"}, {"smiles": "O=C(Cn1cnc2sc(-c3ccccc3)cc2c1=O)NCc1ccco1", "Potency": "inconclusive: 17.8 µM [inhibitor, single point]"}, {"smiles": "CC(C)CNC1=CC(=O)CC(c2ccco2)C1", "note": "(stereo not given)", "Potency": "inactive"}, {"smiles": "COc1cccc(/C=N/NC(=S)NC2CC3CCC2C3)c1OC", "note": "(stereo not given)", "Potency": "inconclusive: 12.6 µM [inhibitor, partial curve, poor fit]"}, {"smiles": "O=C(CCc1n[nH]c(=O)[nH]c1=O)N/N=C/c1ccco1", "Potency": "inconclusive: 15.8 µM [inhibitor, single point]"}, {"smiles": "N/C(=N\\OC(=O)Nc1ccccc1)c1ccno1", "Potency": "inactive"}, {"smiles": "Cc1ccc(NC(=O)CN2C(=O)S/C(=C/c3ccc(-c4cc(C(=O)O)ccc4C)o3)C2=O)cc1C", "Potency": "active: 10 µM"}, {"smiles": "C[C@@H]1OC(OC2CC[C@@]3(C)C(CC[C@@]4(C)C3CC=C3C5CC(C)(C)CC[C@]5(C(=O)OC5OCC(O)[C@@H](O)[C@@H]5OC5O[C@@H](C)[C@H](O[C@H]6OC(CO)C(O)C(O)C6O)C(O)C5O)C(O)C[C@@]34C)C2(C)C)C(O)C(O)[C@H]1OC1OCC(O)C(O)[C@H]1O", "note": "(stereo not given in full)", "Potency": "inactive"}, {"smiles": "Cc1ccc(-c2nc(SCC(=O)Nc3ccccc3OC(F)F)c3c(C)c(C(=O)O)sc3n2)cc1", "Potency": "active: 11.2 µM"}, {"smiles": "O=C1/C(=C/c2ccco2)SC(=S)N1CC1CCCO1", "note": "(stereo not given)", "Potency": "inactive"}]}]}
